What was measured:
[1] = target: T1, HLA-A*02:01 on T2 cells alone (no peptide added) (human); test: flow cytometry, phage on T2 without peptide; secondary only 100, unstained 99.5
T1 construct: TAP-deficient T2 cells without pulsed peptide; negative control target, and the HLA molecule whose stabilisation by peptides is read in the T2 stabilization assay; also called HLA-A*02 molecule; HLA-A2 molecule

[2] = target: T1, HLA-A*02:01 on T2 cells alone (no …); test: flow cytometry, phage on T2 cells, no peptide
[3] = target: T1, HLA-A*02:01 on T2 cells alone (no …); test: flow cytometry, phage on T2 cells
[4] = target: T2, R3 (RHAMM-R3) peptide/HLA-A*02:01 complex on T2 cells (human); test: flow cytometry, phage on T2 + R3 peptide; secondary only 123, unstained 99.8
T2 construct: Control target of the phage staining of T2 cells; also called T2 cells pulsed with R3 peptide; RHAMM 3 (R3)

[5] = target: T3, Foxp3-7 peptide/HLA-A*02:01 complex on the cell surface (human); test: flow cytometry, phage on T2 + Foxp3-7 peptide; secondary only 116, unstained 93.8
T3 construct: also called Foxp3-7/HLA-A2 complex

[6] = target: T3, Foxp3-7 peptide/HLA-A*02:01 complex on …; test: flow cytometry, phage on T2 + Foxp3-7 peptide; secondary only 104, unstained 81.7
[7] = target: T2, R3 (RHAMM-R3) peptide/HLA-A*02:01 …; test: flow cytometry, phage on T2 + R3 peptide (as the table names the samples); secondary only 109, unstained 80.9
[8] = target: T3, Foxp3-7 peptide/HLA-A*02:01 complex on …; test: flow cytometry, phage on T2 + Foxp3-7 peptide; secondary only 133, unstained 103
[9] = target: T1, HLA-A*02:01 on T2 cells alone (no …); test: flow cytometry, phage on T2 without peptide; secondary only 121, unstained 106
[10] = target: T4, T2+EW (Homo sapiens, UniProt A*02:01); test: flow cytometry, phage on T2 + EW peptide; secondary only 113, unstained 94.7
T4 construct: on the surface of T2 cells; irrelevant control peptide; also called EW peptide/HLA-A*02:01 complex on T2 cells; T2 pulsed with EW peptide

[11] = target: T5, 017-mut7 peptide (…)/HLA-A*02:01 complex on T2 cells (human); test: flow cytometry, phage on peptide-loaded T2 cells
T5 construct: Alanine mutant at position 7

[12] = target: T6, 017-mut1 peptide (…)/HLA-A*02:01 complex on T2 cells (human); test: flow cytometry, phage on peptide-loaded T2 cells
T6 construct: Alanine mutant of Foxp3-7 at position 1, pulsed onto T2 cells; also called EXT017-mut1

[13] = target: T7, 017-mut5 peptide (…)/HLA-A*02:01 complex on T2 cells (human); test: flow cytometry, phage on peptide-loaded T2 cells
T7 construct: Alanine mutant at position 5

[14] = target: T8, 017-mut4 peptide (…)/HLA-A*02:01 complex on T2 cells (human); test: flow cytometry, phage on peptide-loaded T2 cells
T8 construct: Alanine mutant at position 4

[15] = target: T9, 017-mut8 peptide (…)/HLA-A*02:01 complex on T2 cells (human); test: flow cytometry, phage on peptide-loaded T2 cells
T9 construct: Alanine mutant at position 8; also called TLI-A8

[16] = target: T10, 017-mut3 peptide (…)/HLA-A*02:01 complex on T2 cells (human); test: flow cytometry, phage on peptide-loaded T2 cells
T10 construct: Alanine mutant at position 3

[17] = target: T11, 017-mut2 peptide (…)/HLA-A*02:01 complex on T2 cells (human); test: flow cytometry, phage on peptide-loaded T2 cells
T11 construct: Alanine mutant at position 2, the anchor position; the peptide may load poorly onto HLA-A2; also called EXT017-mut2

[18] = target: T3, Foxp3-7 peptide/HLA-A*02:01 complex on …; test: flow cytometry, phage on peptide-loaded T2 cells

B1: EXT017-18 scFv phage clone (scFv)
scFv: QAVLTQPPSASGTRGQRVTIS[sequence of about 80 residues omitted]VFGTGTKVTVLGSRGGGGSGGGGSGGGGSLEMAEVQLVQSGAEVKKPGTSVKVSCKASGYTFSNYYIHWVRQAPGQGLEWMGAINPSVGTTTYAQNFQGRVTMTSDTSTSTVYMELSSLTSEDTAVYYCARDWWGQMMYDGWGQGTLVTVSSTSGQAGQHHHHHHGAYPYDVPDYAS
notes: full-length scFv with His+HA tags; also called EXT017-18 phage; phage clone #18
- Median:FITC-A [1]: 139
- MFI [2]: 90.6
- binding result [3]: no binding
- Median:FITC-A [4]: 146
- Median:FITC-A [5]: 761
- Median:FITC-A [6]: 2790
- Median:FITC-A [7]: 117
- Median:FITC-A [8]: 1540
- Median:FITC-A [9]: 148
- Median:FITC-A [10]: 139
- MFI [11]: 95.4
- MFI [12]: 143
- MFI [13]: 95.8
- MFI [14]: 99.1
- MFI [15]: 6600
- MFI [16]: 5150
- MFI [17]: 97.3
- MFI [18]: 25900
